# Some of the results follow. The list includes weakly bound sequences.
# Target: T1, MBP-FoxP3dN (UniProt Q99JB6)
# T1 sequence: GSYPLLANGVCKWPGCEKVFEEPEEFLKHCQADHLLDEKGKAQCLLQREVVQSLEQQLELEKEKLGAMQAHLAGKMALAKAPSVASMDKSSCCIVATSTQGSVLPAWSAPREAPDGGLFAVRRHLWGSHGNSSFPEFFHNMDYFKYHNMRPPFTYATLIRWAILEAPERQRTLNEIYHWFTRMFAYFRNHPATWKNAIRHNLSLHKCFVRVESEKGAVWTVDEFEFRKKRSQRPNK
# Assay: PD-seq (MBP pull-down with sequencing)
# Settings: 20 mM Tris-HCl pH 7.5, 100 mM NaCl, 1.5 mM MgCl2, 0.4 uM protein, 0.1 uM dsDNA library, 30 min, room temperature, amylose pull-down; high values mean tight binding; double strand, one strand shown
row,Sequence,binding signal (RPM ratio (pull-down/input))
1,GATGATTGTTCTCCCAGCTGATGAATTCCGTGCGTCGAGTAAACAAATTTTCCTAATCTTTCTGTTCAAGCGCCATCTAC,0.72
2,GATGATTGTTCTCCCAGCTGATGAATTGAGGCGATCGAGTAAACAAATTTTCCTAATCTTTCTGTTCAAGCGCCATCTAC,1.28
3,GATGATTGTTCTCCCAGCTGATGAATTACTAGACTCGAGTAAACAAATTTTCCTAATCTTTCTGTTCAAGCGCCATCTAC,0.23
4,GATGATTGTTCTCCCAGCTGATGAATTCAAGGGGTCGAGTAAACAAATTTTCCTAATCTTTCTGTTCAAGCGCCATCTAC,0.252
5,GATGATTGTTCTCCCAGCTGATGAATTCCGTTCGTCGAGTAAACAAATTTTCCTAATCTTTCTGTTCAAGCGCCATCTAC,0.528
6,GATGATTGTTCTCCCAGCTGATGAATTTGTTATGTCGAGTAAACAAATTTTCCTAATCTTTCTGTTCAAGCGCCATCTAC,6.84
7,GATGATTGTTCTCCCAGCTGATGAATTGGGACCCTCGAGTAAACAAATTTTCCTAATCTTTCTGTTCAAGCGCCATCTAC,0.385
8,GATGATTGTTCTCCCAGCTGATGAATTGACAGAGTCGAGTAAACAAATTTTCCTAATCTTTCTGTTCAAGCGCCATCTAC,0.266
9,GATGATTGTTCTCCCAGCTGATGAATTAGTGCCTTCGAGTAAACAAATTTTCCTAATCTTTCTGTTCAAGCGCCATCTAC,2.8
10,GATGATTGTTCTCCCAGCTGATGAATTTACTTATTCGAGTAAACAAATTTTCCTAATCTTTCTGTTCAAGCGCCATCTAC,2.26
11,GATGATTGTTCTCCCAGCTGATGAATTTCAACCATCGAGTAAACAAATTTTCCTAATCTTTCTGTTCAAGCGCCATCTAC,0.369
12,GATGATTGTTCTCCCAGCTGATGAATTCGTTCCGTCGAGTAAACAAATTTTCCTAATCTTTCTGTTCAAGCGCCATCTAC,0.302
13,GATGATTGTTCTCCCAGCTGATGAATTTTATATATCGAGTAAACAAATTTTCCTAATCTTTCTGTTCAAGCGCCATCTAC,1.65
14,GATGATTGTTCTCCCAGCTGATGAATTAGCTATCTCGAGTAAACAAATTTTCCTAATCTTTCTGTTCAAGCGCCATCTAC,1.22
15,GATGATTGTTCTCCCAGCTGATGAATTTTTGTGGTCGAGTAAACAAATTTTCCTAATCTTTCTGTTCAAGCGCCATCTAC,0.472
16,GATGATTGTTCTCCCAGCTGATGAATTTAAATTATCGAGTAAACAAATTTTCCTAATCTTTCTGTTCAAGCGCCATCTAC,0.63
17,GATGATTGTTCTCCCAGCTGATGAATTCGTTTGGTCGAGTAAACAAATTTTCCTAATCTTTCTGTTCAAGCGCCATCTAC,3.98
18,GATGATTGTTCTCCCAGCTGATGAATTACGCTTCTCGAGTAAACAAATTTTCCTAATCTTTCTGTTCAAGCGCCATCTAC,2.19
19,GATGATTGTTCTCCCAGCTGATGAATTTATGTTGTCGAGTAAACAAATTTTCCTAATCTTTCTGTTCAAGCGCCATCTAC,4.93
20,GATGATTGTTCTCCCAGCTGATGAATTGAGTAGTTCGAGTAAACAAATTTTCCTAATCTTTCTGTTCAAGCGCCATCTAC,0.963
21,GATGATTGTTCTCCCAGCTGATGAATTCGTGCTATCGAGTAAACAAATTTTCCTAATCTTTCTGTTCAAGCGCCATCTAC,0.826

row,Sequence,binding signal (RPM ratio (pull-down/input))
1,GATGATTGTTCTCCCAGCTGATGAATTGTGGTACTCGAGTAAACAAATTTTCCTAATCTTTCTGTTCAAGCGCCATCTAC,1.06
2,GATGATTGTTCTCCCAGCTGATGAATTCGCGCAATCGAGTAAACAAATTTTCCTAATCTTTCTGTTCAAGCGCCATCTAC,3.15
3,GATGATTGTTCTCCCAGCTGATGAATTTACTTAATCGAGTAAACAAATTTTCCTAATCTTTCTGTTCAAGCGCCATCTAC,0.407
4,GATGATTGTTCTCCCAGCTGATGAATTGCCAGGATCGAGTAAACAAATTTTCCTAATCTTTCTGTTCAAGCGCCATCTAC,0.413
5,GATGATTGTTCTCCCAGCTGATGAATTAGCCACCTCGAGTAAACAAATTTTCCTAATCTTTCTGTTCAAGCGCCATCTAC,0.858
6,GATGATTGTTCTCCCAGCTGATGAATTAAGTCATTCGAGTAAACAAATTTTCCTAATCTTTCTGTTCAAGCGCCATCTAC,1.01
7,GATGATTGTTCTCCCAGCTGATGAATTGACGCATTCGAGTAAACAAATTTTCCTAATCTTTCTGTTCAAGCGCCATCTAC,5.74
8,GATGATTGTTCTCCCAGCTGATGAATTCCGAGCATCGAGTAAACAAATTTTCCTAATCTTTCTGTTCAAGCGCCATCTAC,0.611
9,GATGATTGTTCTCCCAGCTGATGAATTGTTCGCTTCGAGTAAACAAATTTTCCTAATCTTTCTGTTCAAGCGCCATCTAC,0.439
10,GATGATTGTTCTCCCAGCTGATGAATTAACTCTGTCGAGTAAACAAATTTTCCTAATCTTTCTGTTCAAGCGCCATCTAC,0.263
11,GATGATTGTTCTCCCAGCTGATGAATTCGCTGGTTCGAGTAAACAAATTTTCCTAATCTTTCTGTTCAAGCGCCATCTAC,0.785
12,GATGATTGTTCTCCCAGCTGATGAATTGGTCTACTCGAGTAAACAAATTTTCCTAATCTTTCTGTTCAAGCGCCATCTAC,0.665
13,GATGATTGTTCTCCCAGCTGATGAATTTCTTCGATCGAGTAAACAAATTTTCCTAATCTTTCTGTTCAAGCGCCATCTAC,0.187
14,GATGATTGTTCTCCCAGCTGATGAATTACAAGTATCGAGTAAACAAATTTTCCTAATCTTTCTGTTCAAGCGCCATCTAC,0.725
15,GATGATTGTTCTCCCAGCTGATGAATTTTTAGTGTCGAGTAAACAAATTTTCCTAATCTTTCTGTTCAAGCGCCATCTAC,0.426
16,GATGATTGTTCTCCCAGCTGATGAATTTCACGAATCGAGTAAACAAATTTTCCTAATCTTTCTGTTCAAGCGCCATCTAC,0.212
17,GATGATTGTTCTCCCAGCTGATGAATTTCAACCTTCGAGTAAACAAATTTTCCTAATCTTTCTGTTCAAGCGCCATCTAC,0.26
18,GATGATTGTTCTCCCAGCTGATGAATTGTTCGTGTCGAGTAAACAAATTTTCCTAATCTTTCTGTTCAAGCGCCATCTAC,0.582
19,GATGATTGTTCTCCCAGCTGATGAATTGGTATGTTCGAGTAAACAAATTTTCCTAATCTTTCTGTTCAAGCGCCATCTAC,2.35
20,GATGATTGTTCTCCCAGCTGATGAATTGAACCCCTCGAGTAAACAAATTTTCCTAATCTTTCTGTTCAAGCGCCATCTAC,0.277
21,GATGATTGTTCTCCCAGCTGATGAATTTATGCAGTCGAGTAAACAAATTTTCCTAATCTTTCTGTTCAAGCGCCATCTAC,1.1

row,Sequence,binding signal (RPM ratio (pull-down/input))
1,GATGATTGTTCTCCCAGCTGATGAATTCTTTAAGTCGAGTAAACAAATTTTCCTAATCTTTCTGTTCAAGCGCCATCTAC,0.174
2,GATGATTGTTCTCCCAGCTGATGAATTTAACGCTTCGAGTAAACAAATTTTCCTAATCTTTCTGTTCAAGCGCCATCTAC,0.534
3,GATGATTGTTCTCCCAGCTGATGAATTCCAGTAGTCGAGTAAACAAATTTTCCTAATCTTTCTGTTCAAGCGCCATCTAC,0.339
4,GATGATTGTTCTCCCAGCTGATGAATTCCCCGCCTCGAGTAAACAAATTTTCCTAATCTTTCTGTTCAAGCGCCATCTAC,0.403
5,GATGATTGTTCTCCCAGCTGATGAATTAACGCTGTCGAGTAAACAAATTTTCCTAATCTTTCTGTTCAAGCGCCATCTAC,0.621
6,GATGATTGTTCTCCCAGCTGATGAATTGACGAAGTCGAGTAAACAAATTTTCCTAATCTTTCTGTTCAAGCGCCATCTAC,0.223
7,GATGATTGTTCTCCCAGCTGATGAATTCCTGGTGTCGAGTAAACAAATTTTCCTAATCTTTCTGTTCAAGCGCCATCTAC,0.321
8,GATGATTGTTCTCCCAGCTGATGAATTGAGTGAATCGAGTAAACAAATTTTCCTAATCTTTCTGTTCAAGCGCCATCTAC,0.333
9,GATGATTGTTCTCCCAGCTGATGAATTTGTCACTTCGAGTAAACAAATTTTCCTAATCTTTCTGTTCAAGCGCCATCTAC,5.39
10,GATGATTGTTCTCCCAGCTGATGAATTACCATACTCGAGTAAACAAATTTTCCTAATCTTTCTGTTCAAGCGCCATCTAC,0.427
11,GATGATTGTTCTCCCAGCTGATGAATTCGAGACGTCGAGTAAACAAATTTTCCTAATCTTTCTGTTCAAGCGCCATCTAC,0.277
12,GATGATTGTTCTCCCAGCTGATGAATTATGGTATTCGAGTAAACAAATTTTCCTAATCTTTCTGTTCAAGCGCCATCTAC,1.62
13,GATGATTGTTCTCCCAGCTGATGAATTGCCCGAATCGAGTAAACAAATTTTCCTAATCTTTCTGTTCAAGCGCCATCTAC,0.311
14,GATGATTGTTCTCCCAGCTGATGAATTTCCGGTCTCGAGTAAACAAATTTTCCTAATCTTTCTGTTCAAGCGCCATCTAC,0.32
15,GATGATTGTTCTCCCAGCTGATGAATTTTTCATGTCGAGTAAACAAATTTTCCTAATCTTTCTGTTCAAGCGCCATCTAC,0.271
16,GATGATTGTTCTCCCAGCTGATGAATTTCATACGTCGAGTAAACAAATTTTCCTAATCTTTCTGTTCAAGCGCCATCTAC,0.418
17,GATGATTGTTCTCCCAGCTGATGAATTGGCACTATCGAGTAAACAAATTTTCCTAATCTTTCTGTTCAAGCGCCATCTAC,0.509
18,GATGATTGTTCTCCCAGCTGATGAATTCCGGCCATCGAGTAAACAAATTTTCCTAATCTTTCTGTTCAAGCGCCATCTAC,1.02
19,GATGATTGTTCTCCCAGCTGATGAATTAGGTTAATCGAGTAAACAAATTTTCCTAATCTTTCTGTTCAAGCGCCATCTAC,0.369
20,GATGATTGTTCTCCCAGCTGATGAATTCCGTTAATCGAGTAAACAAATTTTCCTAATCTTTCTGTTCAAGCGCCATCTAC,0.357
21,GATGATTGTTCTCCCAGCTGATGAATTCATGGCTTCGAGTAAACAAATTTTCCTAATCTTTCTGTTCAAGCGCCATCTAC,0.554

# From publication PMC12820563
